Test results from PubChem BioAssay AID504706 (National Center for Advancing Translational Sciences (NCATS), 2011).
The whole screen tested about 320,000 compounds, of which about 200 (0.062%) were called active. The inconclusive results got no clear call from the source; some entries with a clear call stand among them for comparison. Calls follow the shape of the dose curve; as a rule, active = well fitted activation curve with a large enough effect; inconclusive = small, poorly fitted or top-dose-only effect; inactive = no such curve, though single readings can be large or run the other way. Potencies of inconclusive entries are left out as doubtful fits.

assay: qHTS assay for re-activators of p53 using a Luc reporter; settings: H1299 p53-A138V BP100-luciferase reporter, luminescence, 24 h; series mostly up to 92.2 µM; also: nearly all actives have a fitted effect of over 45% in size
Method in brief: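 H1299 (p53-null), stable ts p53-A138V + BP100-Luc; 1000 cells/well, Opti-MEM/10% FBS; cpd 4 pt, 1:5; 24 h, 37 deg C, 5% CO2; detection reagent 10 min RT; luminescence.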
Potency is read from the fitted curve at half-maximal effect; tags tell the direction and shape of the fitted curve.

Q: With NC(=O)/C=C\C(=O)Nc1cccc(C(F)(F)F)c1 as the molecule, how does the Potency read?
A: inactive

Q: For CNc1snc(C)c1C(=O)OCC(=O)c1ccc(Cl)cc1, which Potency is on record?
A: inactive

Q: With CCOc1c(OC(C)=O)ccc(/C=C/c2ccc3cccc(OC(C)=O)c3n2)c1[N+](=O)[O-] as the molecule, how does the Potency read?
A: inconclusive [activator, partial curve, poor fit]

Q: With Cc1ccc(C(=O)c2cncc(Br)c2)cc1 as the molecule, how does the Potency read?
A: inconclusive [activator, partial curve, poor fit]

Q: For O=C(c1cc(COc2c(F)cccc2F)on1)N1C[C@H]2CC[C@H]1C2, which Potency is on record?
A: inconclusive [activator, partial curve, poor fit]

Q: For O=C(CSc1nnc(-c2ccccc2)o1)N1CCCCC1, which Potency is on record?
A: inconclusive [activator, full curve, poor fit]

Q: For CCOC(=O)C1=C(C)C(c2cccc(Oc3ccccc3)c2)NC(=S)N1 (configuration not stated), which Potency is on record?
A: inactive

Q: With CN(C1=C(NC(=O)c2ccc(Cl)cc2)C(=O)c2ccccc2C1=O)c1ccccc1 as the molecule, how does the Potency read?
A: inconclusive [activator, single point]

Q: Which Potency does the source give for Cc1cc(C(=O)CSc2nn(-c3ccccc3)c(=S)s2)c(C)n1Cc1ccco1 here?
A: inactive

Q: With Cc1cc(C)nc(N/N=C/C2=C(N3CCOCC3)C(=C/c3ccccc3)/CC2)n1 as the molecule, how does the Potency read?
A: inactive

Q: With Cc1ccsc1C(=O)NCCc1nnc2ccccn12 as the molecule, how does the Potency read?
A: inconclusive [activator, partial curve, poor fit]

Q: With CCC1=NN(C(=O)c2ccc(Br)cc2)C(O)(c2ccccc2)C1 (configuration not stated) as the molecule, how does the Potency read?
A: inactive

Q: Which Potency does the source give for O=C(Nc1nc2ccccc2n1CCN1CCCCC1)c1ccco1 here?
A: inactive

Q: Which Potency does the source give for Nc1nc(-c2ccccc2)c(-c2ccccc2)o1 here?
A: inactive

Q: With N/C(=N/OC(=O)c1ccccc1Cl)c1ncc([N+](=O)[O-])s1 as the molecule, how does the Potency read?
A: inactive

Q: Which Potency does the source give for COc1ccc(CCN(C)C2CCCN(C(=O)c3ccnn3C)C2)cc1OC (configuration not stated) here?
A: inconclusive [activator, single point]

Q: Which Potency does the source give for COc1ccccc1NC(=O)Nc1ccc(Br)cn1 here?
A: inactive

Q: For c1cnc2c(OCc3nc4ccccc4[nH]3)cccc2c1, which Potency is on record?
A: inconclusive [activator, partial curve, poor fit]

Q: With Cn1ccsc1=NC(=O)c1cccc(C#N)c1 as the molecule, how does the Potency read?
A: inconclusive [activator, partial curve, poor fit]

Q: With Clc1cccc(CSc2ncn(-c3ccccc3)n2)c1 as the molecule, how does the Potency read?
A: inconclusive [activator, partial curve, poor fit]

Q: For CCCCN1CNC(=S)N(CCc2ccccc2)C1, which Potency is on record?
A: inactive

Q: For CCN(CC)C(=O)c1sc(NC(=O)c2ccncc2)c(C(=O)OC)c1C, which Potency is on record?
A: inactive

Q: With CC(C)(C)c1ccc(C(=O)Nc2cnccn2)cc1 as the molecule, how does the Potency read?
A: inconclusive [activator, full curve, poor fit]

Q: Which Potency does the source give for O=C(NC1CC1)c1ccc2c(Cl)c3c(nc2c1)CCCC3 here?
A: inconclusive [activator, partial curve, poor fit]

Q: For CC(Oc1ccc(Cl)cc1Cl)c1nc(-c2ccc(NC(=O)c3ccco3)cc2)no1 (configuration not stated), which Potency is on record?
A: inactive

Q: With COc1ccc(NC(=O)COc2ccccc2F)cc1S(=O)(=O)N1CCCCC1 as the molecule, how does the Potency read?
A: inconclusive [activator, single point]

Q: With C=CCN(C(=O)Nc1ccc2oc(C)nc2c1)c1ccccc1 as the molecule, how does the Potency read?
A: inconclusive [activator, partial curve, poor fit]

Q: For CC(=O)Nc1ccc(NC(=O)c2cc(-c3ccccc3)nc3ccccc23)cc1, which Potency is on record?
A: inactive

Q: Which Potency does the source give for C/C(=N\NC(=O)c1c(Cl)cnn1C)c1cccc(NC(=O)C(C)C)c1 here?
A: inactive

Q: Which Potency does the source give for Cc1ccc(C(=O)c2ccccc2C(=O)OCC(=O)Nc2ccc(SC(F)F)cc2)cc1 here?
A: inactive

Q: For CCC(CC)C(=O)N1CCCC(c2nc(-c3cccs3)no2)C1 (configuration not stated), which Potency is on record?
A: inactive

Q: Which Potency does the source give for CCNc1ccccc(C(=O)/C=C/c2ccc3c(c2)OCO3)c1=O here?
A: inactive

Q: Which Potency does the source give for CCOC(=O)c1c(C)c(C(=O)Nc2cc(F)ccc2F)c(C)n1C here?
A: inconclusive [activator, full curve, poor fit]

Q: For Cc1ccc2c(c1)c1ncnc(N3CCc4ccccc4C3)c1n2C, which Potency is on record?
A: inconclusive [activator, single point]

Q: For COc1cc(OC)cc(C(=O)NCC2CCCN(Cc3ccc(SC)cc3)C2)c1 (configuration not stated), which Potency is on record?
A: inconclusive [activator, single point]

Q: Which Potency does the source give for N#Cc1cccc(-c2nnc(SCc3ccccc3C#N)o2)c1 here?
A: inconclusive [activator, partial curve, poor fit]

Q: Which Potency does the source give for Cc1cc(C)c(S(=O)(=O)Nc2ccc(N(C)C)cc2)c(C)c1-n1cnnn1 here?
A: inconclusive [activator, full curve, poor fit]

Q: For COc1cccc(CC(=O)Nc2ccc3c(c2)OC2(CCCC2)O3)c1, which Potency is on record?
A: inconclusive [activator, partial curve, poor fit]

Q: With CCOC(=O)/C(C#N)=C/Nc1ccccc1OC as the molecule, how does the Potency read?
A: inconclusive [activator, partial curve, poor fit]

Q: For Cc1ccccc1OCCNc1ccc(C(F)(F)F)cc1[N+](=O)[O-], which Potency is on record?
A: inconclusive [activator, full curve]

Q: Which Potency does the source give for Cn1nccc1C(=O)N(CCN1CCCCC1)CC1CCCN(C2CCCC2)C1 (configuration not stated) here?
A: inconclusive [activator, partial curve, poor fit]

Q: With COc1cccc(C(=O)NCC(c2ccc3c(c2)OCO3)N2CCN(c3ccc(F)cc3)CC2)c1 (configuration not stated) as the molecule, how does the Potency read?
A: inactive

Q: Which Potency does the source give for O=C(Nc1cccc(S(=O)(=O)N2CCCCCC2)c1)c1ccc2ccccc2n1 here?
A: inconclusive [activator, partial curve, poor fit]

Q: With Cc1ccc(C(=O)Oc2oc(-c3ccco3)nc2C=Nc2ccc(Cl)cc2)cc1 as the molecule, how does the Potency read?
A: inconclusive [activator, full curve, poor fit]

Q: Which Potency does the source give for COc1ccc(C2=Nn3c(nnc3-c3ccccc3OC)SC2)cc1OC1CCOC1 (configuration not stated) here?
A: inactive

Q: With O=C(NCCSCc1ccco1)Nc1ccccc1 as the molecule, how does the Potency read?
A: inconclusive [activator, full curve, poor fit]

Q: Which Potency does the source give for Cn1c(CC(=O)Nc2ccccc2F)nnc1SCC(=O)N1CCOCC1 here?
A: inconclusive [activator, partial curve, poor fit]
